Test results as given in publication PMC11995724, “Antibiotic target discovery by integrated phenotypic and activity-based profiling of electrophilic fragments” (Cell chemical biology, 2025).
About 110 (3.4%) of roughly 3,200 compounds showed an effect of 50% or more. This is one part of the list.

test system: T1, V. cholerae SAD30; set-up: species or system S. aureus MSSA476 (TSB) or V. cholerae SAD30 (LB); 384-well bacterial growth screen at 25 uM, OD600 relative to DMSO control; conditions: relative growth, OD600, LB; 25 µM; inhibitor
T1 construct: SAD30

| SMILES | % of control remaining [%] |
| --- | --- |
| COCc1nc(C2CCCCCN2C(=O)CCl)no1 (stereo not shown) [5-B07, 2-chloro-1-{2-[5-(methoxymethyl)-1,2,4-oxadiazol-3-yl]azepan-1-yl}ethan-1-one] | 100.2 |
| O=C(CCl)Nc1ccc(C(F)(F)F)cc1[N+](=O)[O-] [4-N08, 2-chloro-N-[2-nitro-4-(trifluoromethyl)phenyl]acetamide] | 102.48 |
| O=C(CCl)NC1Cc2ccccc2N(C(=O)C(F)(F)F)C1 (stereo not shown) [7-L16, 2-chloro-N-[1-(2,2,2-trifluoroacetyl)-1,2,3,4-tetrahydroquinolin-3-yl]acetamide] | 86.1721 |
| Cc1cc(C(=O)CCl)c(C)c(C)c1C [10-I06, 2-chloro-1-(2,3,4,5-tetramethylphenyl)ethan-1-one] | 98.9675 |
| Cc1ccc(CC(=O)CCl)cc1 [10-O13, 1-chloro-3-(4-methylphenyl)propan-2-one] | 100.058 |
| C=CC(=O)Nc1cn(C)nc1OC(C)C [1-F14, N-[1-methyl-3-(propan-2-yloxy)-1H-pyrazol-4-yl]prop-2-enamide] | 112.365 |
| Cc1cc(C(=O)CCl)c(C)n1-c1ccc(S(N)(=O)=O)cc1 [10-N14, 4-[3-(2-chloroacetyl)-2,5-dimethyl-1H-pyrrol-1-yl]benzene-1-sulfonamide] | 113.774 |
| N#CC(=Cc1ccc(Cl)c([N+](=O)[O-])c1)C(=O)NCc1ccco1 [9-E15, 3-(4-chloro-3-nitrophenyl)-2-cyano-N-[(furan-2-yl)methyl]prop-2-enamide] | 84.7723 |
| CC(Cl)C(=O)Nc1ccc([N+](=O)[O-])cc1Cl (stereo not shown) [4-J17, 2-chloro-N-(2-chloro-4-nitrophenyl)propanamide] | 100.927 |
| C=CC(=O)NC(Cc1ccccc1)c1ncco1 (stereo not shown) [1-B07, N-[1-(1,3-oxazol-2-yl)-2-phenylethyl]prop-2-enamide] | 90.284 |
| CC(Cl)C(=O)c1ccc(F)c(F)c1 (stereo not shown) [10-A17, 2-chloro-1-(3,4-difluorophenyl)propan-1-one] | 103.955 |
| COc1ccc(NC(=O)N2CCSSCC2)cc1 [10-H21, N-(4-methoxyphenyl)-1,2,5-dithiazepane-5-carboxamide] | 99.7467 |
| CC(Cl)C(=O)NC(C)C(c1ccccc1Cl)n1cccn1 (stereo not shown) [6-P09, 2-chloro-N-[1-(2-chlorophenyl)-1-(1H-pyrazol-1-yl)propan-2-yl]propanamide] | 96.9191 |
